Data from the supplement of paper PMC7335073.
Whole data set: some 4,100 sequences, median “relative CpG methylation activity (normalised to average over all NNNCGNNN flanks)” near 0.87, cut for the highest 2% near 2.4. Some of the results follow.

What follows are sequences tested against DNMT3A catalytic domain (mouse) (UniProt O88508) (assay: relative CpG methylation activity (normalised to average over all NNNCGNNN flanks) (relative (1 = mean)); higher = more methylation of the central CpG). Conditions: system: in vitro, murine catalytic domain; CpG state: hemimethylated substrate pool; residues: 608-908.
Protocol: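 Deep enzymology: a pool of dsDNA substrates with a central CpG flanked by 10 random nucleotides on each side was methylated by the murine DNMT3A or DNMT3B catalytic domain (0.8 mM SAM, 37 °C, 60 min). Methylation was then read out by hairpin ligation, bisulfite conversion and NGS. Values are the average methylation of each NNNCGNNN context (±3 flanks; the outer flanks are random and averaged over), normalised to the overall mean, so 1 = average activity.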

Sequence	relative CpG methylation activity
CGTCGGGA	0.538
CGTCGCGT	0.727
TGCCGTTC	1.05
CACCGCTA	0.836
TCACGTAA	1.62
AACCGGTG	0.625
AGACGAGG	0.444
GCACGATG	0.592
AGACGCCG	1.3
TAGCGCCA	0.576
AGACGTTG	0.379
ACCCGTTG	0.669
TTTCGGAT	0.634
CCCCGTAA	1.55
GTCCGGGA	1.28
TTCCGTCG	2.09
CCCCGTAG	0.788
ACCCGGTC	1.19
AGCCGCTA	1.03
GCGCGAGT	0.631
TGACGAGA	0.743
GCACGGCA	1.26
TCACGAGC	1.97
TATCGACG	0.444
GCTCGCAC	1.53

Sequence	relative CpG methylation activity
AGACGACG	0.755
AATCGTGG	0.0455
GGTCGGGC	0.678
CTCCGAAG	1.01
GAACGACG	0.645
CATCGGTC	1.11
CGCCGTCG	0.955
TCGCGCTA	1.32
TCCCGATC	1.63
TATCGAAA	0.519
AGGCGGCC	0.941
GAGCGCGC	0.65
TACCGCCG	1.3
AAACGTAT	0.468
TTCCGCCG	2.55
TATCGCTG	1.22
ATACGGGC	1.93
GATCGACA	0.553
ATTCGTAC	1.14
GTACGCCG	1.9
ATTCGCTC	1.94
CTGCGACG	1.45
TGACGGCG	0.341
AAACGGCA	0.714
CTCCGCGG	0.426

Sequence	relative CpG methylation activity
CCGCGGAG	0.286
TTTCGACA	1.06
AGCCGCAT	0.699
TCCCGAGC	1.35
GTGCGTGG	0.603
CCACGATA	1.05
AGACGATT	0.791
GCGCGACC	1.12
GGTCGCTG	0.804
ATACGTCG	2.26
AACCGCGA	0.728
TCTCGAAT	0.62
TCCCGCAT	0.92
TGTCGGTT	0.185
GCTCGCTG	1.12
TTACGAGT	1.76
GTTCGGCA	0.789
AAGCGGAT	0.296
CCACGCAT	1.41
GCTCGGGA	0.658
TGACGACG	0.449
AGACGTAA	1.02
AACCGAAG	0.475
CATCGCCC	1.88
TGTCGGAT	0.585

Sequence	relative CpG methylation activity
GCCCGAAT	0.964
ATGCGTAT	1.15
GTACGCGA	1.39
GAACGCAC	1.04
ATCCGTTA	1.61
GGTCGAAG	0.142
CTTCGTAC	1.42
AAACGTAG	0.536
ACCCGCCT	2.44
GGTCGCGC	0.806
TGACGTCA	0.989
CCGCGATT	0.805
ACGCGGCG	0.363
TGCCGTGT	0.128
CATCGGCT	0.8
TAGCGGTA	0.399
AGACGCTT	1.61
ATACGTAG	1.37
AAACGTAC	0.553
TCTCGTAA	1.88
AGTCGCCA	0.994
CATCGTCG	1.01
TGTCGATG	0.316
CTACGTCG	2.46
TCTCGCCT	1.73

Sequence	relative CpG methylation activity
GCCCGCGT	0.742
GAACGAGA	0.69
CAACGCGA	0.48
ATTCGGTC	1.24
AAACGTCA	1.14
CCACGACA	1.25
TTGCGGCA	1.01
GTGCGAAC	1.72
CCCCGTGC	0.871
ACACGTAT	1.34
TTACGGGA	1.68
CCGCGAGT	0.847
TCACGCAT	1.65
GAGCGGTT	0.614
TAACGGAG	0.496
ACGCGGCA	1.07
GAGCGGGG	0.227
ACGCGAAT	0.712
TTGCGTCC	2.39
AGTCGGTG	0.338
GCTCGAGC	1.13
CTCCGCTT	2.3
ACCCGGCG	0.839
TGTCGCTT	1.65
CAGCGGCA	0.544

Sequence	relative CpG methylation activity
AATCGGAC	0.439
AGGCGTCG	1.11
CCCCGCCA	1.91
TGGCGACG	0.592
GGACGATG	0.974
ACTCGTAC	1.01
CCCCGATA	1.02
ATCCGATC	1.9
GCGCGCCG	1.96
CCCCGAGA	1.15
AACCGATG	0.51
GCCCGACA	1.42
TTACGGTG	1.05
CTTCGCGG	0.357
CAGCGCCC	1.19
ATCCGCCA	2.4
CGCCGTTA	0.838
CGTCGTCT	0.702
AGTCGAAT	0.376
AACCGTTC	1.16
CATCGAAC	0.962
ATACGAAC	2.03
ACTCGGAG	0.303
GTCCGAAT	1.47
GCACGGTA	0.912

Sequence	relative CpG methylation activity
GCCCGCAC	1.15
TATCGAAG	0.163
ACTCGCTA	1.08
GCCCGGAC	0.874
TAGCGCTC	0.977
AATCGTCG	0.441
CCCCGAAA	1.36
GGCCGAGC	0.99
ACACGCCT	2.44
GTACGTAT	1.2
GTCCGAAG	1.03
ACGCGATC	1.35
TTACGGGG	0.917
GCTCGACC	1
GTCCGCCC	2.41
AGGCGGTT	0.312
ACGCGATG	0.763
TCGCGTCT	1.16
GACCGAGT	0.88
TGACGCGA	0.348
CAACGTGT	0.264
GAACGTAT	0.58
